{
  "source": "the supplement of paper PMC11417369",
  "note": "The list shows a part of the results.",
  "data": [
    {"tested_on": "PfHDP1 homeodomain (GST-tagged)", "test": "gcPBM binding intensity (ln(normalized median fluorescence intensity)); higher = stronger DNA binding", "outline": "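For binding intensity, the highest Masliner-normalised natural-log median intensity across replicate spots of either probe orientation was taken. Protein bound to the array was stained with Alexa488 anti-GST antibody and scanned at 488 nm. The protein, GST-tagged P. falciparum DNA-binding domains from E. coli at about 25 μg on average, had been applied for 1 h to an Agilent 4 × 180k array of primer-extended double-stranded 36-bp intergenic genomic probes and negative controls.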", "values": [
      {"sequence": "TATATATCATATGATACATGCAACAAAATGCATAAT [TGCATGCA_site205]", "gcPBM binding intensity (ln)": 6.89},
      {"sequence": "TACTTACCAAAATACACACACACACTAGATATATAA [CACACA_site5096]", "gcPBM binding intensity (ln)": 6.93},
      {"sequence": "ATGTATATTACTCATTGTACTTATATTTTCTTATTA [XGTACX_site8897]", "gcPBM binding intensity (ln)": 6.51},
      {"sequence": "TAAAATGCAATCTGAACACACATATTTTTTTAATAT [CACACA_site6922]", "gcPBM binding intensity (ln)": 6.73},
      {"sequence": "TACATCATACGAACAGTGCATATTATTATTGTTCTG", "gcPBM binding intensity (ln)": 7.69},
      {"sequence": "ATGGATTATACGTGCACACATATATACAAATAAATA [CACACA_site640]", "gcPBM binding intensity (ln)": 9.86},
      {"sequence": "ACCATTTGTAGGTAAACACACATTATTATTAATATC [CACACA_site2635]", "gcPBM binding intensity (ln)": 6.39},
      {"sequence": "TTTATTACTATGTAAACACACATGCAATATATGTTA [CACACA_site1114]", "gcPBM binding intensity (ln)": 6.6},
      {"sequence": "AAAAAGAAAAAAAAATGTACATAAAGTCTAATGATA [XGTACX_site4781]", "gcPBM binding intensity (ln)": 6.9},
      {"sequence": "ATATTATATAAATACACACACACATGCATGCACATA [CACACA_site4236]", "gcPBM binding intensity (ln)": 10.3},
      {"sequence": "AAAAAGAATAAATAAATAAATAAATATATATATATA [GTGCAC_negctrl_site584]", "gcPBM binding intensity (ln)": 8.96},
      {"sequence": "TAAGAATTGAAAAAATGTACACAATATAAAATTGAA [XGTACX_site698]", "gcPBM binding intensity (ln)": 6.01},
      {"sequence": "AAAACAAATAAGTAAACACACATATAAAATCTATAT [CACACA_site7262]", "gcPBM binding intensity (ln)": 6.39},
      {"sequence": "CCTATTTATTTATACACACACATATATAAATAAATA [CACACA_site7417]", "gcPBM binding intensity (ln)": 7.03},
      {"sequence": "TTATGTAAATGCTTATGTACTTATTACAATATTTTT [XGTACX_site4057]", "gcPBM binding intensity (ln)": 6.34},
      {"sequence": "GAAAATATAAAAAAAAGTACATTTTCTCTAAATATA [XGTACX_site2441]", "gcPBM binding intensity (ln)": 6.28},
      {"sequence": "AAAAAGGGTATTATTACACACACGTAAATATTAAGA [CACACA_site4233]", "gcPBM binding intensity (ln)": 6.57},
      {"sequence": "CTATATAATATGAGCACACATAAGATTTGGTGTTAT [CACACA_site744]", "gcPBM binding intensity (ln)": 6.9},
      {"sequence": "AAAAAAAAATTATATACACACATATAAATATATATA [CACACA_site1197]", "gcPBM binding intensity (ln)": 6.34},
      {"sequence": "CAAATACAGAAACACACACACATATACATATATATA [CACACA_site3498]", "gcPBM binding intensity (ln)": 6.91},
      {"sequence": "AAAATCTAGGTATTTATACACACTAAAATAATATAC [CACACA_site623]", "gcPBM binding intensity (ln)": 6.44},
      {"sequence": "ATGTTATTAAAAAAGGGTACACATCTTTTATGTTAA [XGTACX_site812]", "gcPBM binding intensity (ln)": 6.54},
      {"sequence": "AATATGTAATAGTGTACACATATATCTGTATTTATG [CACACA_site4252]", "gcPBM binding intensity (ln)": 6.61},
      {"sequence": "ATTACACATATAGTAGTGCAATAACTCCAAAAAAAA", "gcPBM binding intensity (ln)": 9.55},
      {"sequence": "TTTAAATATAATTGGAGTACTTATAATATATATATA [XGTACX_site7247]", "gcPBM binding intensity (ln)": 8.22}
    ]}
  ]
}
